# Experimental data as given in PubChem BioAssay AID1030 (National Center for Advancing Translational Sciences (NCATS), 2008).
# In all, about 220,000 compounds went through this assay and about 16,000 (7.3%) were called active. The inconclusive results got no clear call from the source; some entries with a clear call stand among them for comparison. The call rests on the fitted dose curve; in most records, active means well fitted inhibition curve with a large enough effect (not every such curve was filed as active); inconclusive means small, poorly fitted or top-dose-only effect, or another doubt; inactive means no such curve, though single readings can be large or run the other way. Potencies of inconclusive entries are left out as doubtful fits.
# Target: Aldehyde dehydrogenase 1A1 (Homo sapiens) (UniProt P00352)
# UniProt P00352, sequence (P00352 whole entry, looked up): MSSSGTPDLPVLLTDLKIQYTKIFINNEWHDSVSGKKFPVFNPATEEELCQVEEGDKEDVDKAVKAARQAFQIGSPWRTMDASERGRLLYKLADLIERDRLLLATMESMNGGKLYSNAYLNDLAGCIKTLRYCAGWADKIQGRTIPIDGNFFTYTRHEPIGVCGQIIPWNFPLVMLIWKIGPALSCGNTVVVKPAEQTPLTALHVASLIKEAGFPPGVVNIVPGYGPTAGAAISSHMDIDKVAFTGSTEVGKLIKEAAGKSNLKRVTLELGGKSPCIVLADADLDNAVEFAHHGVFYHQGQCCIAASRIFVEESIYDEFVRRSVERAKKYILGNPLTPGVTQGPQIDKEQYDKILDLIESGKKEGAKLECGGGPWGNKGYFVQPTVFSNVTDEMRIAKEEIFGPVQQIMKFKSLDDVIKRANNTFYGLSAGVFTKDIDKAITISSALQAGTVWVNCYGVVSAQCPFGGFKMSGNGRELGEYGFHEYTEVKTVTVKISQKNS
# Assay: qHTS Assay for Inhibitors of Aldehyde Dehydrogenase 1 (ALDH1A1)
# Settings: Purified ALDH1A1, NADH fluorescence, propionaldehyde substrate; series mostly up to 75.3 µM
# Potency means the concentration at half of the fitted maximal effect; tags describe the fitted curve by direction and shape.
row,SMILES,Potency
1,COc1cccc(N2C(=O)/C(=C\c3cccs3)NC2=S)c1,inactive
2,CCNc1ncc2nc(-c3ccc(F)cc3)c(=O)n(-c3ccccc3)c2n1,"inconclusive [inhibitor, full curve]"
3,COc1ccc2c(c1)c1ncn(CCN3CCCCC3)c(=O)c1n2C,"inconclusive [inhibitor, partial curve]"
4,O=C(O)/C=C/c1cn(-c2ncc(C(F)(F)F)cc2Cl)c2ccccc12,inactive
5,COC(=O)c1ccc(NC(=O)CN2C(=O)CCC2=O)cc1,"inconclusive [inhibitor, single point]"
6,COc1ccc(NC(=S)Nc2ncccc2C)c(OC)c1,"inconclusive [inhibitor, single point]"
7,CCc1ccc(C(C)NC(=O)c2ccc(F)cc2)cc1 (stereo not drawn),"inconclusive [inhibitor, single point]"
8,Cc1cc(C(=O)CSc2nc3ccccc3c(=O)n2C)c(C)n1Cc1ccc2c(c1)OCO2,inactive
9,Cc1cc(C)n(-c2nc(NCC3CCCO3)c3c4c(sc3n2)COC(C)(C)C4)n1 (stereo not drawn),"inconclusive [inhibitor, partial curve]"
10,NS(=O)(=O)c1ccc(N2N=C(c3ccc(Br)cc3)CC2c2ccc(F)cc2)cc1 (stereo not drawn),"inconclusive [inhibitor, partial curve]"
11,Cc1ccsc1C(=O)N1CC(=O)Nc2ccccc21,inactive
12,CCCCOC(=O)CSCC(=O)N1N=C(c2cccs2)CC1c1ccc(F)cc1 (stereo not drawn),"inconclusive [inhibitor, partial curve]"
13,N#Cc1c(C(F)(F)F)cc(-c2cccs2)nc1SCc1ccc(Cl)nc1,"inconclusive [inhibitor, partial curve]"
14,CC1CCN(C(=O)CCc2ccc(Oc3cc([N+](=O)[O-])cc([N+](=O)[O-])c3)cc2)CC1,"inconclusive [inhibitor, partial curve]"
15,O=C(CCc1ccc(S(=O)(=O)NC2CCCCC2)cc1)NCc1ccccn1,inactive
16,CCOC(=O)C(NC(C)=O)(Nc1ccc(S(=O)(=O)Nc2nccs2)cc1)C(F)(F)F (stereo not drawn),"inconclusive [inhibitor, single point]"
17,CC(C)C(C)(C#N)NC(=O)CSc1nc2scc(-c3ccc(F)cc3)c2c(=O)n1Cc1ccccc1 (stereo not drawn),"inconclusive [inhibitor, single point]"
18,COc1ccc(C(=O)CCC(=O)Nc2cccc(Cl)c2)cc1,inactive
19,CN1CCN(C(=O)c2ccc3c(c2)OCCO3)CC1,inactive
20,CN1CCN(Cc2nc3ccccc3c(=O)n2Cc2nc(-c3cccc([N+](=O)[O-])c3)cs2)CC1,"inconclusive [inhibitor, single point]"
21,CN(Cc1cn(-c2ccccc2)nc1-c1ccc2c(c1)OCO2)Cc1nccn1C,"inconclusive [inhibitor, single point]"
22,COc1ccc2cc(C)c3nnc(SCC(=O)Nc4nc(-c5ccc(F)cc5)cs4)n3c2c1,inactive
23,O=C(CCc1nnc(Cc2c[nH]c3ccccc23)o1)NC1CCCC1,"inconclusive [inhibitor, single point]"
24,Cc1nc2ccccc2n1/N=C/c1ccc([N+](=O)[O-])s1,"inconclusive [inhibitor, partial curve, poor fit]"
25,C=CCNC(=O)/C(=C/c1cn(-c2ccccc2)nc1-c1cccc([N+](=O)[O-])c1)NC(=O)c1ccccc1,active: 1 µM

row,SMILES,Potency
1,CCCCNC(=S)N=Nc1c(O)n(Cc2ccccc2)c2ccccc12,active: 20 µM
2,COCCCNC(=S)NNC(=O)C1CC1c1ccc(C(C)(C)C)cc1 (stereo not drawn),inactive
3,Cn1c(/C=C(\C#N)C(N)=S)ccc1-c1ccc(Br)cc1,"inconclusive [inhibitor, single point]"
4,COc1ccc(C(c2sc3nc(C)nn3c2O)N2CCC3(CC2)OCCO3)cc1 (stereo not drawn),"inconclusive [inhibitor, partial curve]"
5,Cn1c(=O)c2c(ncn2CC(=O)Nc2nc3ccc(F)cc3s2)n(C)c1=O,inactive
6,O=C(c1sccc1-n1cccc1)N1CCCC1,"inconclusive [inhibitor, partial curve]"
7,CCc1nnc(NC(=O)CSc2nc3cccnc3n2C2CCCCC2)s1,inactive
8,CN(C)Cc1cc(CCNC(=O)c2ccc(Cl)cc2)ccc1O,inactive
9,CC(C)CCNC(=S)NC1CCCC1,"inconclusive [inhibitor, single point]"
10,COc1ccc(/C=C/C(=O)c2ccc[nH]2)cc1OC,inactive
11,COc1ccc(OCC(=O)Nc2ccc(C)c(S(=O)(=O)N(C)C)c2)cc1,active: 28.2 µM
12,COc1cccc(NC(C)(C)c2nnnn2-c2c(C)cccc2C)c1,"inconclusive [inhibitor, single point]"
13,CCOC(=O)c1c(NC(=S)Nc2ccc(OC)cc2)sc2c1CCCCC2,"inconclusive [inhibitor, partial curve]"
14,Cc1ccc(NC(=S)C2=C(O)c3ccccc3N(C)S2(=O)=O)cc1,"inconclusive [inhibitor, single point]"
15,COc1cccc(NC(=O)N2CCN(C(=O)C(Cc3ccc(OC)c(OC)c3)NC(C)=O)CC2)c1 (stereo not drawn),"inconclusive [inhibitor, single point]"
16,Cc1ccc(CC(=O)N/N=C/c2ccc3c(c2)OCO3)cc1,inactive
17,COc1ccc(/C=C/CN2CCCC(CCC(=O)NCc3ccc(F)c(F)c3)C2)cc1 (stereo not drawn),inactive
18,CCC(C)NC(=O)CCSc1ccc(C)cc1 (stereo not drawn),inactive
19,CC(C)CN(C(=O)CSc1nncs1)c1c(N)n(CC(C)C)c(=O)[nH]c1=O,"inconclusive [inhibitor, single point]"
20,CC(C)Cc1[nH]c(=O)c(C#N)c2c1CCCC2,"inconclusive [inhibitor, single point]"
21,O=C(CSc1cccc2cccnc12)N/N=C/c1ccc(F)cc1,"inconclusive [inhibitor, single point]"
22,COc1ccc(-c2nnc(NC(=O)c3ccc(S(=O)(=O)N4CCCc5ccccc54)cc3)o2)cc1,inactive
23,CCNC(=O)NC(=O)C(C)Oc1ccc(Br)cc1Br (stereo not drawn),inactive
24,CSc1ncccc1C(=O)OCc1ccc(Br)cc1,inactive
25,CS(=O)(=O)Nc1ccc(C2=NN(S(C)(=O)=O)C(c3ccc4c(c3)OCO4)C2)cc1 (stereo not drawn),"inconclusive [inhibitor, partial curve]"

row,SMILES,Potency
1,NC(=O)CSc1nnc(CNc2cccc(Cl)c2)n1CCc1ccccc1,"inconclusive [inhibitor, single point]"
2,O=C(NCCN1CCOCC1)c1ccc2c(c1)N(Cc1cccc(F)c1)C(=O)c1ccccc1S2,active: 28.2 µM
3,Cc1ccc(O)c(-c2cc3ccccc3[nH]2)c1,"inconclusive [inhibitor, partial curve]"
4,COC(=O)c1ccc(CNC(=O)COC(=O)CCC2CCCC2)cc1,inactive
5,O=C(NNC(=O)c1sc2cccc(Cl)c2c1Cl)Nc1ccccc1,"inconclusive [inhibitor, partial curve, poor fit]"
6,N#C/C(=C/c1ccc(N2CCCCCC2)o1)c1cccc(F)c1,active: 2 µM
7,CCn1c(SCC(=O)Nc2ccc3c(c2)OCO3)nc2c(c1=O)SC(C)C2 (stereo not drawn),"inconclusive [inhibitor, single point]"
8,Cc1ccc(Cl)cc1NC(=O)CCCN1C(=O)c2cccnc2C1=O,inactive
9,NC(=O)[C@@H]1CCNc2c(I)cc([N+](=O)[O-])cc2C(=O)N[C@@H](CO)C(=O)N[C@@H](Cc2ccc(O)cc2)C(=O)N1,inactive
10,CC1=NN2C(=N)/C(=C\c3cc(C)n(-c4ccccc4)c3C)C(=O)N=C2S1,"inconclusive [inhibitor, partial curve]"
11,CCCCN1C(=O)/C(=C/C=C2/C=Cc3ccccc3N2CC)SC1=S,"inconclusive [inhibitor, partial curve]"
12,COc1ccc(C[C@H]2CN3C(=NC[C@@H]3Cc3ccccc3)N2CCNC(=O)c2ccc(C)c(Br)c2)cc1,"inconclusive [inhibitor, single point]"
13,O=C(O)c1ccc(NS(=O)(=O)c2ccc3c(c2)C2C=CCC2C(c2ccccc2F)N3)cc1 (stereo not drawn),"inconclusive [inhibitor, single point]"
14,O=C(CN(Cc1ccccc1)S(=O)(=O)c1ccccc1)N/N=C/c1ccccc1C(=O)O,"inconclusive [inhibitor, partial curve]"
15,Nc1c(C(=O)NCc2ccco2)c2nc3ccccc3nc2n1CCc1ccccc1,"inconclusive [inhibitor, partial curve]"
16,Cc1cc(=O)oc(C)c1C(=O)Nc1c(C)n(C)n(-c2ccccc2)c1=O,inactive
17,Cc1ccc(NC(=O)Cn2nnc(C(=O)NCc3cccs3)c2N)cc1,inactive
18,CCCN(C(=O)CSc1nnnn1C)c1c(N)n(Cc2ccccc2)c(=O)[nH]c1=O,inactive
19,Cc1cc2ccccc2c(=O)[nH]1,inactive
20,CC(C)Cn1cc(C(=O)NC2CCN(Cc3ccccc3)CC2)c2c3ccccc3n(C)c2c1=O,"inconclusive [inhibitor, partial curve]"
21,COc1ccccc1CNC(=O)CCS(=O)(=O)c1cccc2nonc12,active: 17.8 µM
22,Cc1c(Br)c(=O)oc2c(Br)c(O)c(O)cc12,"inconclusive [inhibitor, partial curve]"
23,O=C1CCCN1CN(C(=O)c1ccccc1)c1ccccc1,"inconclusive [inhibitor, single point]"
